Results taken from PMC6919601, “Identification of Plasmodium dipeptidyl aminopeptidase allosteric inhibitors by high throughput screening” (PLoS ONE, 2019).
The campaign covered roughly 110,000 compounds. About 230 (0.21%) showed an effect of 50% or more. Some of the results follow.

biological target: DPAP1 (Plasmodium falciparum, UniProt Q8IIJ9); test: primary screen, percent inhibition; read by cleavage of a fluorogenic dipeptide substrate; higher = more effect of the substance; set-up: species or system P. falciparum D10 trophozoite lysates; single well
Sequence (Q8IIJ9 whole entry, looked up): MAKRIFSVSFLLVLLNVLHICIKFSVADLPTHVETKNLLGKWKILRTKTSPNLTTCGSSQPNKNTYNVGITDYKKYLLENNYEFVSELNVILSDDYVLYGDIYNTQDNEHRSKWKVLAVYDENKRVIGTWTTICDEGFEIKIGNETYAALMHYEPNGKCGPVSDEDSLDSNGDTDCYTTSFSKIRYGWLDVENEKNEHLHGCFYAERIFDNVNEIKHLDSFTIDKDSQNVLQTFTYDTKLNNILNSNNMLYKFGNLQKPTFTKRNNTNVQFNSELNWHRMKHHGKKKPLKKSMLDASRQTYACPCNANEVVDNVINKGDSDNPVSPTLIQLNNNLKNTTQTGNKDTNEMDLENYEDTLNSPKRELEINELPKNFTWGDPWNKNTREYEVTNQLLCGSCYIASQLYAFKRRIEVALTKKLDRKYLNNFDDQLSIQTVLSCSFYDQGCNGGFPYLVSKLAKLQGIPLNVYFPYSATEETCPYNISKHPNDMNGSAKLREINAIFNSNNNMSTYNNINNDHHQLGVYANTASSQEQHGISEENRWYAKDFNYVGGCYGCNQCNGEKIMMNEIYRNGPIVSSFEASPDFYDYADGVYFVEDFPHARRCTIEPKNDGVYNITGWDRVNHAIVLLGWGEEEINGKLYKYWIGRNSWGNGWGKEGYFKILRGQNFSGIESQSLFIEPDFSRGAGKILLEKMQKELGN
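Also: 30 min substrate incubation versus DMSO and 10 µM JCP410 controls.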

Row | SMILES | % Inhibition @ 10 uM [%]
1 | CN1C(=O)/C(=C\c2ccc(N(C)C)cc2)N=C1SCC(=O)Nc1ccc(Cl)cc1 | 2.68
2 | C=C1c2cc(C)ccc2NC(=O)N1c1cccc(Cl)c1 | -5.26
3 | CN(CCCNC(=O)c1cc(-c2ccc(Cl)cc2)[nH]n1)Cc1ccccc1 | -2
4 | CN(C)S(=O)(=O)n1cc(/C=C(\NC(=O)c2ccccc2)C(=O)NCCO)c2ccccc21 | 11.9
5 | CCCc1ccc(OCC(O)CN2CCC(C)CC2)cc1 (stereo not drawn) | 2.23
6 | CCN1CCN(C2CCCCC2NS(=O)(=O)c2ccccc2)CC1 (stereo not drawn) | -0.671
7 | CC(=O)c1c(C)[nH]c(C(=O)OCc2ccccc2)c1C | 3.01
8 | Cc1nc2c(C(=O)N3CCN(C)CC3)cnn2c(C)c1Cc1ccc(Cl)cc1 | -2.26
9 | O=C1CCc2cccc3c(O)c(Cc4ccccc4)c(O)c1c23 | 6.13
10 | COc1cccc(CNC(=O)c2cnn3c4c(cnc23)CCCCC4)c1 | 3.3
11 | O=C(NC1(c2ccccc2)CC1)N1CCN(Cc2ccccc2)CC1 | -1.52
12 | Cc1ccccc1NC(=O)c1cncc(Br)c1 | 0.632
13 | Cc1cc2nc(O)c(O)nc2cc1S(=O)(=O)N1CCN(C2CCCCC2)CC1 | 12.4
14 | COC(=O)c1cc2oc(C)cc2n1CC(=O)Cc1ccc(OC)cc1OC | -11.4
15 | COc1ccccc1-c1nc(-c2ccccc2)no1 | 0.0538
16 | CC(=O)c1ccc(OCC(O)CN2CCN(c3ccccc3)CC2)cc1 (stereo not drawn) | 0.215
17 | C=CCOc1ccc(CNCC2CCCO2)cc1 (stereo not drawn) | 0.163
18 | Cc1cccc(C(=O)Nc2cccc3c2CCCC3)c1 | -3.27
19 | O=C(c1ccccc1)c1cccc(C(=O)c2ccccc2)n1 | 2.02
20 | Cc1ccccc1-c1nc(CSCC(=O)NCc2cccnc2)c(C)o1 | 0.689
21 | COc1ccc(C2C(=O)N(C3CCCCC3)CC(=O)N2CCC2=CCCCC2)cc1OC (stereo not drawn) | -3.94
22 | CCN(CC)C(=O)CSC1=C(C#N)C(c2cc(OC)c(OC)c(OC)c2)CC(=O)N1 (stereo not drawn) | 3.66
23 | CCCc1cc(C(=O)Nc2cnn(Cc3ccc(F)cc3)c2)no1 | 0.628
24 | CCN1CCN(C2CCN(C3CCN(Cc4ccccc4)CC3)CC2)CC1 | -5.51
25 | CC(C)CC(NC(=O)C1CCC(C)CC1)C(=O)NCc1ccccn1 (stereo not drawn) | 2.64
26 | N=C1/C(=C\c2ccc(SCc3ccc(Cl)cc3)o2)C(=O)N=C2SC(N3CCOCC3)=NN12 | -5.27

Row | SMILES | % Inhibition @ 10 uM [%]
27 | CCN(Cc1ccccc1)c1nc2c(-c3ccccc3)nnn2c2ccccc12 | 3.59
28 | O=C(C1CCN(S(=O)(=O)c2cccc3cccnc23)CC1)N1CCCC1 | -9.18
29 | O=[N+]([O-])c1ccc(-n2ccc3ccccc32)cc1 | -5.51
30 | CCc1n(CC(O)COc2ccc(C(=O)OC)cc2)c2ccccc2[n+]1C (stereo not drawn) | -5.28
31 | COCCCNC(=O)CCCc1nnc2n(CCC(C)C)c(=O)c3sccc3n12 | -0.759
32 | CCCc1cc(=O)oc2cc(O)cc(O)c12 | 1
33 | COc1cccc2c1Oc1ncccc1N(C(=O)CCC(=O)NCC(C)c1ccccc1)C2 (stereo not drawn) | 4.52
34 | Cc1cccc(NC(=O)C2CCCN2C(=O)OC(C)(C)C)c1 (stereo not drawn) | -8.64
35 | CC(=O)c1cc(-c2ccccc2)n(CCC(=O)N2CCCCCC2)c1C | 1.47
36 | CCCCOn1c(C)c(C(=O)OCC)c2c3no[n+]([O-])c3ccc21 | -4
37 | COc1ccc(C(=O)Cc2cc(OC)cc(OC)c2)cc1 | -1.89
38 | CN1C(=O)c2ccccc2C(C(=O)NCCN2CCN(Cc3ccccc3)CC2)C1c1cccs1 (stereo not drawn) | -3.87
39 | CC(=O)c1cccc(NC(=O)COc2ccc(Br)cc2Cl)c1 | -3.78
40 | CCCC(C)NC(=O)c1ccc(OCC)cc1 (stereo not drawn) | -1.36
41 | COc1ccc(CCNC(=O)CCc2c(C)nc3ncnn3c2C)c(OC)c1 | 2.93
42 | CCOc1cccc(N2C(=O)CC(N3CCC(C(=O)O)CC3)C2=O)c1 (stereo not drawn) | -2.67
43 | CC1CCCC(N2CCN(c3ccc([N+](=O)[O-])cc3)CC2)C1 (stereo not drawn) | -3.6
44 | Cc1ccc2c(c1)-c1c(cnn1CC(=O)NCc1ccc(F)cc1)CO2 | -2.67
45 | Cc1cc2nc(S(=O)(=O)Cc3cccc(C(F)(F)F)c3)[nH]c2cc1C | -1.81
46 | CC1SC(c2cccc(Cl)c2)NC1=O (stereo not drawn) | -2.32
47 | CC(=O)NCC/N=C/C1=C(O)c2sccc2N(Cc2cccc(F)c2)S1(=O)=O | -4.03
48 | CCOC(=O)c1c(NC(=O)COC(=O)/C=C/c2ccco2)sc2c1CCC2 | 2.8
49 | O=C(O)c1cccc(NC2=C(Cl)C(=O)N(c3ccc(Cl)c(Cl)c3)C2=O)c1 | -6.7
50 | Cc1ccc(CCN2C(=O)CN(C3CCCCC3)C(=O)C2c2ccc(F)cc2)cc1 (stereo not drawn) | -7.73
51 | COc1ccc(/C=C/C(=O)NC(C)Cc2ccccc2)cc1OC (stereo not drawn) | -2.63
52 | O=C1NC2(CCCCCC2)Oc2ccccc21 | 5.24

Row | SMILES | % Inhibition @ 10 uM [%]
53 | Cc1nc2c(-c3ccc(F)cc3)c(C)nn2c(C)c1CC(=O)NCc1ccccn1 | -2.45
54 | COC(=O)NCCOc1nc(N(C)C)nc(N(C)C)n1 | 1.52
55 | Cc1cc(C)cc(-n2c(C)cc(C=C3C(=O)N(C)C(=O)N(C)C3=O)c2C)c1 | 4.95
56 | Cc1nn2c(=O)/c(=C/c3cccc(Oc4ccccc4)c3)sc2nc1=O | -1.52
57 | Cc1ccc(Cc2c(C)nc3c(C(=O)NC4CCCC(C)C4C)cnn3c2O)cc1 (stereo not drawn) | 0.0654
58 | COc1ccc(OC)c(CNc2nn3nnnc3c3ccccc23)c1 | -4.51
59 | OCCN1CCN(Cc2cccs2)CC1 | -0.292
60 | CCc1nn(C(C)C(=O)N(C)Cc2ccccc2)c(=O)c2cc3occc3n12 (stereo not drawn) | -2
61 | Cc1cc(NCc2cccnc2)nc2ccccc12 | -1.37
62 | CCn1c2ccccc2n2c(SCc3ccccc3)nnc12 | 1.23
63 | CCc1ccc(NC2=CC(=O)CC(c3ccco3)C2)cc1 (stereo not drawn) | 2.51
64 | CC1CCN(Cc2ccccc2CO)CC1 | -4.03
65 | O=C1OC(c2ccccc2F)=N/C1=C\c1coc2c(Cl)cc(Cl)cc2c1=O | -5.22
66 | COCc1cc(C)nc(SCc2ccccc2Cl)c1C#N | -2.68
67 | O=C1C(c2c[nH]c3ccccc23)CC(c2ccccc2)=NN1c1ccccc1 (stereo not drawn) | 1.54
68 | O=C(Nc1ccccc1)N1CCCCC1 | -5.57
69 | CCn1c(C)c(C)c2cc(C(=O)NCCC3=CCCCC3)ccc21 | -0.127
70 | CCC1CCc2c(sc(NC(=O)C(C)C)c2C#N)C1 (stereo not drawn) | 0.385
71 | O=C(/C=C/c1cccs1)NC(=S)N1CCOCC1 | 4.44
72 | CCn1cc(C2=NOC(C(=O)NCCc3ccccc3)C2)c(C)n1 (stereo not drawn) | -3.08
73 | COc1ccccc1C1CC(=O)NC(SCc2ccccc2Cl)=C1C#N (stereo not drawn) | 2.03
74 | Cc1c(C(=O)Nc2ccccc2F)cccc1[N+](=O)[O-] | 0.827
75 | Cc1ccc2c(c1)c1c3n2CCN(C(=O)c2ccccc2)C3CCC1 (stereo not drawn) | -4.87
76 | O=C(Cn1cc2c(n1)CCCC2)N1CCC(Cc2ccccc2)CC1 | 4.95
77 | O=C(CCCCCN1C(=O)c2ccccc2C1=O)NCc1ccccn1 | -6.08
78 | CCOc1ccc(-c2csc3ncn(CC(=O)Nc4cc(C)ccc4C)c(=O)c23)cc1 | -0.478

Row | SMILES | % Inhibition @ 10 uM [%]
79 | N#Cc1ccc(-c2ccc3c(c2)OCO3)nc1SCC(=O)Nc1cccc(F)c1 | -0.68
80 | Oc1nc(Cc2ccccc2)nc2sc3c(c12)CCCC3 | 5.04
81 | CCN(CC)CCN1C(=O)C(O)=C(C(=O)c2ccc(Cl)cc2)C1c1ccc(C)o1 (stereo not drawn) | -3.85
82 | COc1ccc2[nH]cc(CCNS(=O)(=O)c3ccc(-n4cnnn4)c(OC)c3)c2c1 | -2.4
83 | Cc1ccc(C)c(N(CC(=O)Nc2ccc(C(C)C)cc2)S(C)(=O)=O)c1 | -2.83
84 | CCOc1ccc(/C=C2\SC(=O)N(CC(=O)Nc3ccc(C)cc3)C2=O)cc1OC | 4.49
85 | CC(CNc1nc2ccc(C(=O)c3ccccc3)cc2n2cnnc12)c1ccccc1 (stereo not drawn) | 3.42
86 | COc1ccc(OC(C)C)c(C2C(C#N)=C(N)Oc3c2oc(CO)cc3=O)c1 (stereo not drawn) | -5.36
87 | Cn1c(=O)[nH]c(=O)c2c1nc(CN(Cc1ccccc1)Cc1ccccc1)n2CCN1CCOCC1 | 3.59
88 | O=[N+]([O-])c1ccc(-c2cc(O)n(-c3ccccc3Cl)n2)cc1 | -4.3
89 | CC(OC(=O)c1cccnc1SCc1cc(=O)n2ccccc2n1)c1ccccn1 (stereo not drawn) | 2.05
90 | O=C(Nc1ccc2c(c1)C(=O)NC2=O)c1ccco1 | 1.34
91 | COc1ccc(NC(=O)C(N)=O)cc1Cl | 4.38
92 | CCOC(=O)c1[nH]c2ccccc2c1NC(=O)c1cc(OC)c(OC)c(OC)c1 | 4.14
93 | Cc1ccc(C2=CC(c3ccccc3F)n3nnnc3N2)cc1 (stereo not drawn) | 0.0842
94 | CC(=O)/N=C(\N)Nc1nc(C)c2cc(C)c(C)cc2n1 | 2.03
95 | COc1ccc(/C=N/OCc2nc3c4c5c(sc4ncn3n2)CCCC5)cc1 | 1.26
96 | Cc1ccc(NC(=O)CS(=O)(=O)c2ccc3ccccc3c2)cc1 | -4.67
97 | COc1ccc(CCNC(=O)c2cc(C3CC3)on2)cc1OC | -4.43
98 | O=C(c1ccc(S(=O)(=O)N2CCCCCC2)cc1)N1CCN(c2ccccc2)CC1 | 3.1
99 | C=CCNc1ncnc2c1cnn2-c1cccc(C)c1 | 7.92
100 | CCCOc1ccc2nc(NC(=O)OC)sc2c1 | 2.79
101 | CCOC(=O)c1c(NC(=O)CN2CCCCC2)sc2c1CCCCC2 | 14.5
102 | C[C@@H](NC(=O)CN1C(=O)c2ccccc2S1(=O)=O)c1ccccc1 | 7.17
